# Results reported in article PMC4336329 (PLoS ONE, 2015).
# Out of some 310,000 compounds screened, about 14,000 (4.5%) showed an effect of 50% or more. The effect is printed as a negative number. Some of the results follow.
# Target: human ether-à-go-go-related gene (hERG) potassium channel (human, UniProt Q12809)
# Assay: primary screen, population patch clamp on CHO cells stably expressing hERG
# 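Also: peak tail current of the secondary pulse compared with the same well before compound.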
# Sequence of human ether-à-go-go-related gene (hERG) potassium channel (Q12809 whole entry, looked up): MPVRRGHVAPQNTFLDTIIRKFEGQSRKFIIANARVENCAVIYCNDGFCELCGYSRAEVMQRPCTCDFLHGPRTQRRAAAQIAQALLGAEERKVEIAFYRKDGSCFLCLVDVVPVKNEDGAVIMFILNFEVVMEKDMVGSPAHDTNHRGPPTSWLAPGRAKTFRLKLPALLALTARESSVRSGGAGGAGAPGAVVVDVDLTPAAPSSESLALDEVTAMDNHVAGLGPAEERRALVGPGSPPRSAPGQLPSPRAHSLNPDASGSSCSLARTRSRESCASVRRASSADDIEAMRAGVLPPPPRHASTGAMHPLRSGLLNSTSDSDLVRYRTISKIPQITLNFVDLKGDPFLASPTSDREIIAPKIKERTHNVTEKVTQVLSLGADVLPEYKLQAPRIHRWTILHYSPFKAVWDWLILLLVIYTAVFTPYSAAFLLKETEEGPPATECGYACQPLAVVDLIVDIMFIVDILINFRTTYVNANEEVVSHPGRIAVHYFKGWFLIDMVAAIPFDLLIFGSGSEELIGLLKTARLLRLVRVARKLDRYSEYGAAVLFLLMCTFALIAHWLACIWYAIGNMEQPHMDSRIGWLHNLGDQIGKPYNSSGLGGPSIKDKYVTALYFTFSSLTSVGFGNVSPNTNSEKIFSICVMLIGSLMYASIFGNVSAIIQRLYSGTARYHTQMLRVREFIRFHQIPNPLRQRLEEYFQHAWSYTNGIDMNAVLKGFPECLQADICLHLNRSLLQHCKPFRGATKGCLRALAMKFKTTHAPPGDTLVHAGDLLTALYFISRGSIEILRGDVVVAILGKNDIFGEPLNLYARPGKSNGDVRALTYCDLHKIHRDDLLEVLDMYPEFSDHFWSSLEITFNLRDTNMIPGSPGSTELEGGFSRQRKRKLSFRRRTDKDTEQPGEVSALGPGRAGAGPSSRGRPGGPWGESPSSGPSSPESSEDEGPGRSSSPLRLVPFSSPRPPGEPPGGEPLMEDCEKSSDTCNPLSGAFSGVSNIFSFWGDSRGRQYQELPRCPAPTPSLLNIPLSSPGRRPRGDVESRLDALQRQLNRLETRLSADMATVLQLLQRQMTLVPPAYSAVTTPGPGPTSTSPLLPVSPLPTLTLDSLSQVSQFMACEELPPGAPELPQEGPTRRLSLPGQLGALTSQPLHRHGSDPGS
row,Structure (SMILES),"hERG current change (%, negative = inhibition) at 10uM [%]"
1,CC(C)c1ccc(/C=N/n2cnnc2)cc1,0.305
2,COC(=O)c1ccc(CSc2nc3c(c(=O)n2-c2ccc(Br)cc2)SCC3)o1,6.03
3,CCCCCCSc1nnc(-c2cnn(-c3ccccc3)c2-n2cccc2)n1C,-20.8
4,Cc1ccc(-n2nnnc2-c2cnc(N3CCCC3)nc2C(F)(F)F)cc1,-9.95
5,O=C1C=C(O)c2c(O)cccc2C1=O,15.4
6,FC(F)(F)c1nc(-c2ccncc2)ncc1-c1nnnn1-c1ccccc1,-0.18
7,C=CCN(CC=C)C(=O)C1CCC(C(=O)N(CC=C)CC=C)CC1 (stereo not drawn),5.11
8,CCOC(=O)N1CCN(Cc2cc(Cl)c3cccnc3c2O)CC1,-16.7
9,Cc1ccc(S(=O)(=O)N2CCC(=O)CC2)cc1,10.7
10,CS(=O)(=O)N(CC(=O)Nc1cccc([N+](=O)[O-])c1)c1ccccc1F,16.2
11,Cc1nn2c(NCc3ccccn3)cc(C(C)C)nc2c1-c1ccccc1,11.9
12,O=C1c2ccccc2-c2ccc(C(=O)N3CCOCC3)cc21,-17.3
13,COCCN(C(=O)COC(=O)c1cc2c(s1)CCCC2)c1c(N)n(Cc2ccccc2)c(=O)[nH]c1=O,-0.675
14,COCCNC(=O)C1(C)C=CC2(CCCCC2)N1C(=O)c1ccccc1 (stereo not drawn),5.19
15,Cc1nn(Cc2ccc(Cl)cc2)c(C)c1NC(=O)c1noc2c1CCCCC2,-32.7
16,Cc1c(-c2ccc(OCc3ccccc3)cc2)nc2ccccc2c1C(=O)O,18.8
17,O=C(O)c1cccc(NS(=O)(=O)c2ccc(Cl)c(C(=O)Nc3cccc([N+](=O)[O-])c3)c2)c1,19.7
18,CCOc1ccc(/C=C(\C#N)C(=O)c2c(C)[nH]c3ccccc23)cc1OC,-4.5
19,CC(C)n1cnc2c(NCc3ccccc3)cc(Cc3ccc(F)cc3)cc21,14.5

row,Structure (SMILES),"hERG current change (%, negative = inhibition) at 10uM [%]"
1,O=S(=O)(c1ccccc1)C1(C2CC(c3ccccc3)=NO2)CC(O)C1 (stereo not drawn),-35.1
2,CC1CCN(c2ccc(C(=O)NCc3ccc4c(c3)OCO4)cc2[N+](=O)[O-])CC1,-9.79
3,CCn1c(NCc2cc(OC)ccc2OC)nc2ccccc21,-22.8
4,Fc1c(F)c(F)c(/C=N/NC(=S)Nc2cccnc2)c(F)c1F,11.6
5,O=C(N/N=C/c1ccncc1)NC1CCCCC1,20.1
6,CC(C)CN(CC(C)C)S(=O)(=O)N1CCC(C(=O)NCc2ccccn2)CC1,-4.86
7,Fc1ccc(CNC(=S)Nc2cccc(C(F)(F)F)c2)cc1,0.46
8,CCS(=O)(=O)N1CCC(C(=O)Nc2ccccc2OC)CC1,19.6
9,CCOc1ccc(N=C(NC#N)SCC(=O)NC2CC2)cc1,-8.23
10,CC1CCCC(C)N1C(=O)Cn1nnc(-c2ccccc2)n1 (stereo not drawn),14.7
11,COC(=O)C(Cc1ccccc1)NC(=O)c1ccc(C)cc1 (stereo not drawn),5.08
12,CC(NC1c2ccccc2-c2ccccc21)c1ccccc1 (stereo not drawn),9.54
13,COc1ccc(OCC(=O)Nc2ccc(NC(=O)c3cccs3)c(OC)c2)cc1,-21.5
14,NS(=O)(=O)c1ccc(NC(=S)NC(=O)C2CCCC2)cc1,-7.76
15,O=C(CCc1nc2ccccc2s1)OCC(=O)N1CCN(C(=O)c2ccco2)CC1,-25.6
16,O=C(COc1ccc(F)cc1)Nc1cc(Cl)ccc1-n1cncn1,-8.31
17,Cc1ccnc(NC(=O)c2cc(S(=O)(=O)N3CCCCC3)ccc2Cl)c1,-7.56
18,O=C(COC(=O)c1ccncc1)NCc1ccccc1,3.58
19,CCOc1ccc(NC(=O)c2cc3c(=O)n(C)c4ccccc4c3n2C)cc1,-2.87

row,Structure (SMILES),"hERG current change (%, negative = inhibition) at 10uM [%]"
1,COc1ccc(CNC(=O)[C@@H](NC(=O)C2CCN(C(=O)[C@@H]3CCCN3C(=O)OC(C)(C)C)CC2)C(C)C)cc1,-9.4
2,CCCCNC(=O)c1cn(CC)c2cc(N3CCN(C)CC3)c(F)cc2c1=O,-0.449
3,COc1ccc(NC(=O)c2ccc(NC(=O)CSc3nccc(=O)[nH]3)cc2)cc1,15.4
4,Cc1ccc(C(=O)OCC(=O)N2CCCCCC2)c(O)c1,5.38
5,CC(C)(C)c1ccc(C(=O)c2c[nH]c(C(=O)NCC3CCCO3)c2)cc1 (stereo not drawn),-1.01
6,CCOc1ccc(CNC(=O)c2ccco2)cc1,6.48
7,CCCc1nc2sc3c(c2c(=O)n1NC(=O)CCC(=O)O)CCCC3,-4.76
8,COc1ccc(OC)c(C2NC(=O)NC(C)=C2C(=O)OCc2ccccc2)c1 (stereo not drawn),1.62
9,COc1ccccc1CCNC(=O)C(=O)NCC1CCCN1S(=O)(=O)c1ccccc1 (stereo not drawn),-48.6
10,Cl.N=C(N=C(N)N)N1CCOCC1,4.14
11,CSc1nc(-c2ccccc2)nn1C(=O)c1ccccc1,16.6
12,Cc1ncoc1C(=O)N1CCCC(C(=O)c2ccc(Oc3ccccc3)cc2)C1 (stereo not drawn),-45
13,O=C(NNC(=S)Nc1ccc(Br)cc1Cl)c1ccco1,23.9
14,Cc1noc(NS(=O)(=O)c2ccc(NC(=O)CCC3CCCC3)cc2)c1C,-1.22
15,CCCCC(=O)NC(=S)Nc1nnn(CCC)n1,9.55
16,CC1(c2ccccc2)NC(=O)N(NC(=O)COC(=O)c2cc(Br)ccc2O)C1=O (stereo not drawn),-5.01
17,Cc1c(NC(=O)C(C)OC(=O)COc2ccccc2)c(=O)n(-c2ccccc2)n1C (stereo not drawn),14.9
18,Cc1cc(Br)ccc1OCC(=O)N(Cc1nc(-c2ccccc2)no1)C(C)C,-11.4
19,NC(=O)C1=C[C@@H](c2ccc(Br)cc2)C[C@@H](OCc2ccc(CO)cc2)O1,-25
